The other results are listed elsewhere or left out. Where only a bound is given, the exact number is not on record here.

B1: PhoQ; a variant is named by its letters at X, in order, P23837 (parent)
chain: MKKLLRLFFPLSLRVRFLLATAAVVLVLSLAYGMVALIGYSVSFDKTTFRLLRGESNLFYTLAKWENNKLHVELPENIDKQSPTMTLIYDENGQLLWAQRDVPWLMKMIQPDWLKSNGFHEIEADVNDTSLLLSGDHSIQQQLQEVREDDDDAEMTHSVAVNVYPATSRMPKLTIVVVDTIPVELKSSYMVWSWFIYVLSANLLLVIPLLWVAAWWSLRPIEALAKEVRELEEHNRELLNPATTRELTSLVRNLNRLLKSERERYDKYRTTLTDLTHSLKTPLXXLQXXLRSLRSEKMSVSDAEPVMLEQISRISQQIGYYLHRASMRGGTLLSRELHPVAPLLDNLTSALNKVYQRKGVNISLDISPEISFVGEQNDFVEVMGNVLDNACKYCLEFVEISARQTDEHLYIVVEDDGPGIPLSKREVIFDRGQRVDTLRPGQGVGLAVAREITEQYEGKIVAGESMLGGARMEVIFGRQHSAPKDE

In this experiment the parent is B1. Nature of the experiment: enrichment ratio after two sorts for PhoP signalling (ratio (wild type AVST 3.29)); higher = more functional. The settings on record: with PhoP (E. coli).
For MYRS, the enrichment ratio is at most 0.25. As to HDFF, the enrichment ratio was at most 0.25.

Regarding FHMY, the enrichment ratio was at most 0.25.

On to LYAL, for which the enrichment ratio was at most 0.25. DIGM: the enrichment ratio is at most 0.25. DTCK: the enrichment ratio is at most 0.25. On to MTCI, for which the enrichment ratio is at most 0.25. The value for QYKD was at most 0.25. As to QCCK, the enrichment ratio is at most 0.25. As to QPCW, the enrichment ratio is at most 0.25. EIAL: the enrichment ratio was 2.14.

For ATLV, the enrichment ratio is 12.7.

In the case of MRCD, the enrichment ratio was at most 0.25. Take FRGW: the enrichment ratio is at most 0.25. For APDN, the enrichment ratio was at most 0.25. Take KDQA: the enrichment ratio is at most 0.25. The value for GVHK was at most 0.25; that for QNQV was at most 0.25; that for DCSH was at most 0.25. IWQP: the enrichment ratio was at most 0.25. For WDKG, the enrichment ratio is at most 0.25.

Take KLIE: the enrichment ratio is at most 0.25.

Consider TMLY, for which the enrichment ratio was at most 0.25.

As to TDAP, the enrichment ratio was at most 0.25. The value for FMFG was at most 0.25; that for PILT was at most 0.25. As to LPNY, the enrichment ratio was at most 0.25.

As for VCGK, the enrichment ratio is at most 0.25. The value for DLIV was at most 0.25; that for VDML was at most 0.25. As for IWWN, the enrichment ratio was at most 0.25. As for TFMP, the enrichment ratio was at most 0.25.

For MCKH, the enrichment ratio was at most 0.25.

TPIS: the enrichment ratio was at most 0.25.

On to TTTR, for which the enrichment ratio turned out to be 0.88. The value for ISNG was at most 0.25. In the case of RLWH, the enrichment ratio was at most 0.25. For the variant HEIV, the enrichment ratio was at most 0.25. Regarding RRKQ, the enrichment ratio is at most 0.25.

For PTER, the enrichment ratio was at most 0.25. The value for MNMM was 0.253. The value for TCQM was at most 0.25. Regarding FDFT, the enrichment ratio is at most 0.25. In the case of RGLI, the enrichment ratio was at most 0.25.

For NGMG, the enrichment ratio was at most 0.25. For the variant RVTA, the enrichment ratio was at most 0.25. For MVNY, the enrichment ratio was at most 0.25. Turning to GPKG, the enrichment ratio was at most 0.25. For the variant TIPW, the enrichment ratio is at most 0.25. Take FEIL: the enrichment ratio was 0.675.

On to INYS, for which the enrichment ratio was at most 0.25. Turning to WSTT, the enrichment ratio is at most 0.25. As for DERF, the enrichment ratio was at most 0.25. For the variant AWQP, the enrichment ratio is at most 0.25.

For the variant QNFF, the enrichment ratio was at most 0.25. The value for PDIL was at most 0.25. For the variant MCMA, the enrichment ratio is at most 0.25. With EYPC, the enrichment ratio is at most 0.25. As to PLSE, the enrichment ratio was at most 0.25. Consider MRGV, for which the enrichment ratio was at most 0.25. The value for QSRL was at most 0.25; that for WDLN was at most 0.25; that for IFMS was at most 0.25. With LFAR, the enrichment ratio is at most 0.25.

In the case of CHHI, the enrichment ratio was at most 0.25. As for IQIC, the enrichment ratio was at most 0.25.

Regarding GFQQ, the enrichment ratio was at most 0.25. The value for LATE was at most 0.25.

Consider PMIA, for which the enrichment ratio was at most 0.25. The value for NEAV was at most 0.25. The value for VLSP was at most 0.25; that for IIYS was at most 0.25. VWQP: the enrichment ratio was at most 0.25. Turning to WNGC, the enrichment ratio was at most 0.25. EMMT: the enrichment ratio was at most 0.25.

Consider KFRN, for which the enrichment ratio was at most 0.25. For the variant WWFC, the enrichment ratio is at most 0.25. With DNYC, the enrichment ratio is at most 0.25. The value for ENWP was at most 0.25; that for WPRT was at most 0.25; that for GIFW was at most 0.25.

WRMM: the enrichment ratio was at most 0.25. PEVD: the enrichment ratio is at most 0.25. The value for TGSW was at most 0.25; that for FFNS was at most 0.25; that for IHIV was at most 0.25. Regarding DIEA, the enrichment ratio is at most 0.25. For KVDV, the enrichment ratio was at most 0.25.

In the case of KGYE, the enrichment ratio was at most 0.25. As to AFPW, the enrichment ratio is at most 0.25. KMML: the enrichment ratio is at most 0.25.

With TLYG, the enrichment ratio is at most 0.25.

Regarding TDDQ, the enrichment ratio was at most 0.25. For NVTH, the enrichment ratio was at most 0.25. The value for SIWM was at most 0.25; that for VEEP was at most 0.25.

For the variant KVMS, the enrichment ratio is at most 0.25. In the case of KNLM, the enrichment ratio was at most 0.25. Consider FVFV, for which the enrichment ratio was at most 0.25. The value for AIGF was 11.6; that for VFMW was at most 0.25. Take RVAF: the enrichment ratio is at most 0.25. With EHQP, the enrichment ratio was at most 0.25. Take WNSC: the enrichment ratio was at most 0.25. The value for HFKE was at most 0.25; that for FWTF was at most 0.25; that for FNVP was at most 0.25.

In the case of PFPC, the enrichment ratio was at most 0.25. Take DNRL: the enrichment ratio was at most 0.25.

For MARH, the enrichment ratio was at most 0.25. On to KCNY, for which the enrichment ratio was at most 0.25. ICIV: the enrichment ratio is at most 0.25. Take ESMY: the enrichment ratio was at most 0.25.

Regarding LFQP, the enrichment ratio is at most 0.25. In the case of QCSP, the enrichment ratio is at most 0.25. The value for PDKA was at most 0.25; that for IWSA was at most 0.25; that for NMEH was at most 0.25. As for HMFM, the enrichment ratio was at most 0.25. The value for RDFS was at most 0.25; that for TEDY was at most 0.25. The value for LWNK was at most 0.25.

For RAMR, the enrichment ratio is at most 0.25. For KTRF, the enrichment ratio is at most 0.25. In the case of RPIW, the enrichment ratio is at most 0.25. The value for VSKN was at most 0.25. Consider ECWG, for which the enrichment ratio is at most 0.25. Consider QSIA, for which the enrichment ratio was at most 0.25. Consider DCFP, for which the enrichment ratio is at most 0.25. For the variant KAEL, the enrichment ratio was at most 0.25.

As to IEQC, the enrichment ratio was at most 0.25. With EKIR, the enrichment ratio was at most 0.25. Take KEIQ: the enrichment ratio was at most 0.25. Turning to PQGT, the enrichment ratio was at most 0.25. Regarding NFWA, the enrichment ratio is at most 0.25. YARS: the enrichment ratio is at most 0.25. On to TGMV, for which the enrichment ratio was determined as 12.7. Take PLME: the enrichment ratio is at most 0.25. As for AERY, the enrichment ratio is at most 0.25. Turning to FNHE, the enrichment ratio was at most 0.25. As for PDGL, the enrichment ratio is at most 0.25.

Turning to VLIM, the enrichment ratio was at most 0.25. With FDME, the enrichment ratio is at most 0.25. With NASA, the enrichment ratio is at most 0.25.

Consider LHLH, for which the enrichment ratio was at most 0.25.

For RSWN, the enrichment ratio is at most 0.25.

Take KQPM: the enrichment ratio is at most 0.25. The value for DDDT was at most 0.25; that for IEFH was at most 0.25. Turning to FLMS, the enrichment ratio is at most 0.25. As for TSTL, the enrichment ratio was determined as 20.7. As to VEVH, the enrichment ratio was determined as 1.54. As for PCCK, the enrichment ratio was at most 0.25.

The values above are taken from a collection of fitness landscapes (doi:10.1126/science.1257360).
